Data: patent EP0562731A1, “Substituted pyridinesulfonamide compounds or their salts, process for preparing the same, and herbicides containing the same” (ISHIHARA SANGYO KAISHA, Ltd., priority 1992, dated 1993)
At least one read-out could not be matched to a standard name with certainty.

Legend:
Assay in all cases: Test Example 1: foliar application pot test, visual growth control rating
Assay type in all cases: in vivo
Conditions in all cases: wettable powder, observed 20 to 31 days after application
[1] = system: barnyard grass (Echinochloa crus-galli); design: key: 1: the same as in an untreated plot; 10: perfect growth control
Source text: (§1) 1/1,500 are [are (a) = 100 m²] pots were filled with upland farming soil, which in the pots was then sown with a variety of plants. The plants grown will be enumerated below.
(§2) When each plant reached a given growth stage (a 1.2- to 3.0-leaf stage for rice, primary leaf to a 0.7-leaf stage for soybean, 2.1- to 3.6-leaf stage for corn, cotyledon to 0.7-leaf stage for cotton, 2.0- to 3.0-leaf stage for wheat, 0.3- to 3.4-leaf stage for cocklebur, 0.3- to 1.6-leaf stage for morning glory, 0.1- to 1.3-leaf stage for prickly sida, 0.1- to 1.3-leaf stage for slender amaranth, 1.5- to 3.2-leaf stage for barnyard glass, and 1.2- to 3.0-leaf stage for large crabgrass), a predetermined amount of the herbicide of the present invention in the form of a wettable powder, weighed out, diluted with 5 ℓ/a of water and admixed with 0.2 or 0.1 vol%, based on the resulting composition, of an agricultural spreader, was foliarly applied to the plant with a small spray gun. The progress of growth of the plant was visually observed 20 to 31 days after the foliar application to evaluate the degree of growth control according to 10 ratings (1: the same as in an untreated plot - 10: perfect growth control).

[2] = system: corn (Zea mays); design: key: 1: the same as in an untreated plot; 10: perfect growth control
Source text: as §1, §2

[3] = system: rice (Oryza sativa); design: key: 1: the same as in an untreated plot; 10: perfect growth control
Source text: as §1, §2

[4] = system: slender amaranth (Amaranthus viridis); design: key: 1: the same as in an untreated plot; 10: perfect growth control
Source text: as §1, §2

[5] = system: soybean (Glycine max); design: key: 1: the same as in an untreated plot; 10: perfect growth control
Source text: as §1, §2

[6] = system: wheat (Triticum); design: key: 1: the same as in an untreated plot; 10: perfect growth control
Source text: as §1, §2

[7] = system: cocklebur (Xanthium strumarium); design: key: 1: the same as in an untreated plot; 10: perfect growth control
Source text: as §1, §2

[8] = system: large crabgrass (Digitaria adscendens)
Source text: as §1, §2

[9] = system: prickly sida (Sida spinosa)
Source text: as §1, §2

[10] = system: morning glory (Ipomoea purpurea); design: key: 1: the same as in an untreated plot; 10: perfect growth control
Source text: as §1, §2

CCC(C)N(c1cccc(S(=O)(=O)NC(=O)Nc2nc(C)nc(OC)n2)n1)S(=O)(=O)CC(C)C (racemic) [compound 80]
degree of growth control, EC ([1]; 0.31 g/a active ingredient): 3 | degree of growth control, EC ([1]; 1.25 g/a active ingredient): 4 | degree of growth control, ZE ([2]; 0.31 g/a active ingredient): 1 | degree of growth control, ZE ([2]; 1.25 g/a active ingredient): 2 | degree of growth control, OR ([3]; 0.31 g/a active ingredient): 1 | degree of growth control, OR ([3]; 1.25 g/a active ingredient): 3 | degree of growth control, AM ([4]; 0.31 g/a active ingredient): 6 | degree of growth control, AM ([4]; 1.25 g/a active ingredient): 7 | degree of growth control, GL ([5]; 0.31 g/a active ingredient): 5 | degree of growth control, GL ([5]; 1.25 g/a active ingredient): 6 | degree of growth control, TR ([6]; 0.31 g/a active ingredient): 3 | degree of growth control, TR ([6]; 1.25 g/a active ingredient): 4

CCCCS(=O)(=O)N(c1cccc(S(=O)(=O)NC(=O)Nc2nc(C)nc(OC)n2)n1)C(C)CC (racemic) [compound 84]
degree of growth control, XA ([7]; 0.31 g/a active ingredient): 6 | degree of growth control, XA ([7]; 1.25 g/a active ingredient): 7 | degree of growth control, ZE ([2]; 0.31 g/a active ingredient): 2 | degree of growth control, ZE ([2]; 1.25 g/a active ingredient): 3 | degree of growth control, OR ([3]; 0.31 g/a active ingredient): 5 | degree of growth control, OR ([3]; 1.25 g/a active ingredient): 6 | degree of growth control, AM ([4]; 0.31 g/a active ingredient): 7 | degree of growth control, AM ([4]; 1.25 g/a active ingredient): 8 | degree of growth control, GL ([5]; 0.31 g/a active ingredient): 5 | degree of growth control, GL ([5]; 1.25 g/a active ingredient): 6 | degree of growth control, TR ([6]; 0.31 g/a active ingredient): 5 | degree of growth control, TR ([6]; 1.25 g/a active ingredient): 6 | degree of growth control, DI ([8]; 0.31 g/a active ingredient): 3 | degree of growth control, DI ([8]; 1.25 g/a active ingredient): 4 | degree of growth control, SI ([9]; 0.31 g/a active ingredient): 2 | degree of growth control, SI ([9]; 1.25 g/a active ingredient): 3

COc1nc(C)nc(NC(=O)NS(=O)(=O)c2cccc(N(C(C)C)S(=O)(=O)C(C)Cl)n2)n1 (racemic) [compound 93]
degree of growth control, EC ([1]; 0.31 g/a active ingredient): 7 | degree of growth control, EC ([1]; 1.25 g/a active ingredient): 10 | degree of growth control, ZE ([2]; 0.31 g/a active ingredient): 8 | degree of growth control, ZE ([2]; 1.25 g/a active ingredient): 9 | degree of growth control, GL ([5]; 0.31 g/a active ingredient): 6 | degree of growth control, GL ([5]; 1.25 g/a active ingredient): 7 | degree of growth control, TR ([6]; 0.31 g/a active ingredient): 9 | degree of growth control, TR ([6]; 1.25 g/a active ingredient): 10 | degree of growth control, DI ([8]; 0.31 g/a active ingredient): 5 | degree of growth control, DI ([8]; 1.25 g/a active ingredient): 7 | degree of growth control, SI ([9]; 0.31 g/a active ingredient): 5 | degree of growth control, SI ([9]; 1.25 g/a active ingredient): 7

CCN(c1cccc(S(=O)(=O)NC(=O)Nc2nc(OC)nc(OC)n2)n1)S(=O)(=O)C(C)C [Compound No. 2, 6-[(N-ethyl-N-isopropylsulfonyl)amino]-N-[[(4,6-dimethoxytriazin-2-yl)amino]carbonyl]-2-pyridinesulfonamide]
degree of growth control, EC ([1]; 0.31 g/a active ingredient): 8 | degree of growth control, EC ([1]; 1.25 g/a active ingredient): 9 | degree of growth control, ZE ([2]; 0.31 g/a active ingredient): 9 | degree of growth control, ZE ([2]; 1.25 g/a active ingredient): 10 | degree of growth control, IP ([10]; 0.31 g/a active ingredient): 9 | degree of growth control, IP ([10]; 1.25 g/a active ingredient): 10 | degree of growth control, OR ([3]; 0.31 g/a active ingredient): 8 | degree of growth control, OR ([3]; 1.25 g/a active ingredient): 10 | degree of growth control, GL ([5]; 0.31 g/a active ingredient): 2 | degree of growth control, GL ([5]; 1.25 g/a active ingredient): 3 | degree of growth control, TR ([6]; 0.31 g/a active ingredient): 8 | degree of growth control, TR ([6]; 1.25 g/a active ingredient): 10 | degree of growth control, DI ([8]; 0.31 g/a active ingredient): 8 | degree of growth control, DI ([8]; 1.25 g/a active ingredient): 9 | degree of growth control, SI ([9]; 0.31 g/a active ingredient): 5 | degree of growth control, SI ([9]; 1.25 g/a active ingredient): 6
